A word on the koff: it is a measure of how fast the partners let go of each other. Lower therefore signals a long-lived complex. Broadly, the kon is a measure of how fast the partners come together. The low end stands for slower complex formation, the high end for faster complex formation.

We go through one molecule from US20240034795A1 (Innovent, published 2024).

Test [1] deals with T1, human FcRn (Cat. No. CT009-H08H, Lot No. LC120C3101, Sino biological) (human, UniProt P55899 in part; P61769 in part).
T1 construct: Bought reagent
T1 sequence (P55899 24-297 limits assumed, chain 1 of 2): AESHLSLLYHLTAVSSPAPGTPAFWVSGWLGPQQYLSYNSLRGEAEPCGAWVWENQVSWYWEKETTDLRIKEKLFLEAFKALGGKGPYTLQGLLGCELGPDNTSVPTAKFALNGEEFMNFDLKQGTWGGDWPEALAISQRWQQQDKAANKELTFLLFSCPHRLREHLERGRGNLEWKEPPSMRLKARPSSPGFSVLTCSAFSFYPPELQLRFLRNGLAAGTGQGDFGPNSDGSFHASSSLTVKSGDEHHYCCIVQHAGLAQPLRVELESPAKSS
T1 sequence (P61769 21-119 limits assumed, chain 2 of 2, further chain): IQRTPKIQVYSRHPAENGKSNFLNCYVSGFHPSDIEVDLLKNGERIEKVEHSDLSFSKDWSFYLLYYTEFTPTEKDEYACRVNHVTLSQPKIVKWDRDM
The test can be described thus: BLI (Fortebio Octet Red96), FcRn on HIS1K sensors. For orientation: Biolayer interferometry detects binding as a change in optical thickness at a sensor tip.

Test [2] deals with T1, human FcRn (Cat. No. CT009-H08H, Lot …). Briefly: BLI (Fortebio Octet Red96), 100 nM FcRn loaded on HIS1K sensors, antibody 0-100 nM in solution.

B1: HDM-006 (Fc fusion)
heavy: QVQLQQPGAELVKPGASVKMSCKASGYTFTSYNMHWVKQTPGRGLEWIGAIYPGNGDTSYNQKFKGKATLTADKSSSTAYMQLSSLTSEDSAVYYCARSTYYGGDWYFNVWGAGTTVTVSAASTKGPSVFPLAPSSKSTSGGTAALGCLVKDYFPEPVTVSWNSGALTSGVHTFPAVLQSSGLYSLSSVVTVPSSSLGTQTYICNVNHKPSNTKVDKKV[gap - human IgG1 Fc with L234A L235A S364R D399K (EU numbers)]
light: QIVLSQSPAILSASPGEKVTMTCRASSSVSYIHWFQQKPGSSPKPWIYATSNLASGVPVRFSGSGSGTSYSLTISRVEAEDAATYYCQQWTSNPPTFGGGTKLEIKRTVAAPSVFIFPPSDEQLKSGTASVVCLLNNFYPREAKVQWKVDNALQSGNSQESVTEQDSKDSTYSLSSTLTLSKADYEKHKVYACEVTHQGLSSPVTKSFNRGEC
chain: APASSSTKKTQLQLEHLLLDLQMILNGINNYKNPELEEMLTAKFYMPKKATELKHLQCLEEELKPLEEVLNLAGDASIHDLISNINVIVLELKGSETTFMCEYADETATIVEFLNRWITFSQSIISTLTGGGGSGGGGSDKTHTCPPCPAPEAAGGPSVFLFPPKPKDTLMISRTPEVTCVVVDVSHEDPEVKFNWYVDGVEVHNAKTKPREEQYNSTYRVVSVLTVLHQDWLNGKEYKCKVSNKALPAPIEKTISKAKGQPREPQVTTLPPSRDELTKNQVSLTCLVSGFYPSDIAVEWESNGQPENNYKTTPPVLDSDGSFFLYSDLTVDKSRWQQGNVFSCSVMHEALHNHYTQKSLSLSPGK
notes: also called Fc mutant (HDM-006); Fc heterodimer
On to B1, for which the “fold difference of KD against control antibody IgG1 (adalimumab)” value in test [1] came to 1.4 fold. In test [2], this molecule had a koff of 0.00842 s⁻¹ and an on-rate (kon) of 591000 M⁻¹ s⁻¹.
